{"source": "PubChem BioAssay AID588855", "about": "(National Center for Advancing Translational Sciences (NCATS), 2011)", "note": "In all, about 410,000 compounds went through this assay and about 5,000 (1.2%) were called active. The shares of active, inactive and inconclusive entries below differ from those in the screen. Calls come from the whole dose curve; as a rule, active = well fitted inhibition curve with a large enough effect; inconclusive = small, poorly fitted or top-dose-only effect; inactive = no such curve, though single readings can be large or run the other way. Where the call is inconclusive, the potency comes from a doubtful curve fit. % is set by controls: 0 for no effect and ±100 for the full control effect; potency is the fitted concentration of half-maximal effect; tags give direction and shape of the fitted curve.", "data": [{"assay": "qHTS for Inhibitors of TGF-b; note: nearly all actives have a fitted effect of over 65% in size", "conditions": "HepG2 CAGA-GFP TGF-b/SMAD3 reporter, GFP fluorescence, 18 h, TGF-beta stimulated, 500 pg/mL final; series mostly up to 46.1 µM; activity, negative = inhibition: at the top concentration", "how_it_was_run": "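HEPG2 CAGA-GFP cells (1000/well, DMEM with 1% FBS) were pre-incubated 2 h at 37 degrees C, given compound by pin tool, then stimulated with TGF-beta at 500 pg/mL final for 18 h before per-cell GFP fluorescence imaging.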", "values": [{"smiles": "COc1ccc(/C=N/Nc2nc(-c3ccc(Cl)cc3)cc(C(F)(F)F)n2)cc1OC", "Potency": "inconclusive: 35.5 µM [inhibitor, single point]"}, {"smiles": "Cc1nnnn1/C(=C\\c1ccccc1)C(=O)OCC(=O)N1CC2(C)CC1CC(C)(C)C2", "note": "(stereo not drawn)", "Potency": "inconclusive: 35.5 µM [inhibitor, single point]"}, {"smiles": "O=C(CCc1ccccc1)NNC(=O)c1ccccn1", "activity, negative = inhibition": "inactive: -24.1%"}, {"smiles": "COc1cccc(CC2(CO)CCCN(C(=O)c3cc[n+]([O-])cc3)C2)c1", "note": "(stereo not drawn)", "Potency": "inconclusive: 7.94 µM [inhibitor, partial curve, poor fit]"}, {"smiles": "Cn1cccc1CNC(=S)Nc1cc(F)cc(F)c1", "activity, negative = inhibition": "inactive: -7.56%"}, {"smiles": "CC(=O)C1=CCC(c2ccccc2F)N(S(=O)(=O)c2ccc(C)cc2)C1", "note": "(stereo not drawn)", "activity, negative = inhibition": "inactive: -9.92%"}, {"smiles": "CCn1c(SCC(=O)Nc2nc(-c3ccc(C)cc3)cs2)nnc1-c1ccccc1O", "Potency": "inconclusive: 17.8 µM [inhibitor, single point]"}, {"smiles": "CCc1cccc(NC(=O)CN(C)C2=NS(=O)(=O)c3ccccc32)c1", "activity, negative = inhibition": "inactive: -0.56%"}, {"smiles": "C/C(Cn1nnc([N+](=O)[O-])n1)=N\\NC(=O)c1cccc(Cl)c1", "Potency": "inconclusive: 17.8 µM [inhibitor, partial curve, poor fit]"}, {"smiles": "O=C(NCc1ccc(Cl)cc1)C(=O)NCC1OCCN1S(=O)(=O)c1cc(F)ccc1F", "note": "(stereo not drawn)", "Potency": "inconclusive: 3.55 µM [inhibitor, single point]"}, {"smiles": "Cc1cc(N2CCN(c3nc(-c4ccc([N+](=O)[O-])cc4)cs3)CC2)c2ccccc2n1", "activity, negative = inhibition": "inactive: 15.9%"}, {"smiles": "Cc1ccc(S(=O)(=O)NCCC(=O)OCc2ccc([N+](=O)[O-])cc2)cc1C", "Potency": "inconclusive: 31.6 µM [inhibitor, single point]"}, {"smiles": "CCCCCCCn1c(=O)c(C(=O)OC)c(N)c2ccccc21", "Potency": "active: 12.6 µM"}, {"smiles": "O=C(Nc1c2c(nn1-c1ccc(Cl)cc1)CS(=O)(=O)C2)c1cccc(Cl)c1", "Potency": "inconclusive: 35.5 µM [inhibitor, single point]"}, {"smiles": "CCc1cccc(NC(=O)CN2c3ccccc3S(=O)(=O)c3ccccc32)c1", "Potency": "inconclusive: 0.501 µM [inhibitor, full curve, poor fit]"}, {"smiles": "Cc1cc(C)cc(NS(=O)(=O)c2ccc(F)cc2)c1", "Potency": "inconclusive: 28.2 µM [inhibitor, single point]"}, {"smiles": "COc1cccc(N=c2oc3cc(O)ccc3cc2C(=O)NCC2CCCO2)c1", "note": "(stereo not drawn)", "Potency": "inconclusive: 15.8 µM [inhibitor, single point]"}, {"smiles": "COc1ccc(OC)c(CCNC(=O)CN2C(=O)COc3ccc(S(=O)(=O)N4CCCCCC4)cc32)c1", "Potency": "inconclusive: 15.8 µM [inhibitor, single point]"}]}]}
